The results in this text go back to ChEMBL document CHEMBL4888484, “Replenishing the malaria drug discovery pipeline: Screening and hit evaluation of the MMV Hit Generation Library 1 (HGL1) against asexual blood stage Plasmodium falciparum ,using a nano luciferase reporter read-out” (2022).

Screen size: about 150,000 compounds; about 540 (0.36%) showed an effect of 50% or more. Some of the results follow.

For this assay, the system named is Plasmodium falciparum. The experiment in a line: Primary screen in NF54 nanoGlo assay, in single point, at 2uM, 72h; a lower Z score goes with more inhibition. The class given is functional, Erythrocyte. The settings on record: timepoint 72 hour.
As usually defined, the % Inhibition is the relative decrease from the control value, in per cent. With `COCCNC(=O)Nc1ccc2c(c1)C(=O)NCC2`, the “% Inhibition” value is -15% and the Z score was determined as 2.13.

`Cc1nc(C)c(CN(CCC(N)=O)c2ccc(F)cc2)s1`: the “% Inhibition” value was 31% and the Z score was -3.51.

`Cc1cc(C)n(-c2ccc(CN3CCC[C@@H]3C(=O)O)cc2)n1`: the “% Inhibition” value is reported as -11% and the Z score is on record as 1.63.

Regarding `O=C1Nc2ccc(NC(=O)C(F)(F)F)cc2C1=O`, the “% Inhibition” value is recorded as -8% and the Z score came out at 1.25.

For `Cc1ccnc(N2CC[C@H](Oc3cncc(Br)c3)C2)n1`, the “% Inhibition” value is 15% and the Z score is -1.74.

`c1ccc2c(-c3csc4nc5ccccc5n34)cccc2c1`: the “% Inhibition” value is on record as -1% and the Z score stood at 0.08.

As for `CC(=O)Nc1ccc(CNC2CCC3CCC2C3)cn1` (stereo unspecified), the “% Inhibition” value is reported as 1% and the Z score is given as -0.26.

On to `O=C(NCc1ccco1)[C@H]1CC(=O)N(CCN2CCN(S(=O)(=O)c3ccccc3)CC2)C1`, for which the “% Inhibition” value is reported as 5% and the Z score is -0.73.

Take `Clc1ccc(-c2nc(-c3ccc(-n4cccn4)nc3)no2)s1`: the “% Inhibition” value was -15% and the Z score was found to be 1.6.

Consider `COC(=O)c1cncc(NCc2cnccc2C)c1`, for which the “% Inhibition” value was -36% and the Z score worked out at 4.26.

On to `O=C1Cc2cc(S(=O)(=O)N3CCN(c4ccccc4)CC3)ccc2N1`, for which the “% Inhibition” value was -11% and the Z score came out at 1.49.

`Cc1cc(NC(=O)[C@H](C)N2CCN(Cc3cccs3)CC2)on1`: the “% Inhibition” value was -4% and the Z score is listed as 0.6.

For the molecule `O=C(CCC1CCN(Cc2ccc3nonc3c2)CC1)N1CCOCC1`, the “% Inhibition” value is on record as -1% and the Z score is on record as 0.18.

As for `CN1CC[C@H](C(=O)N2CCC(Cc3ccccc3)CC2)CC1=O`, the “% Inhibition” value is listed as -4% and the Z score came to 0.55.

For the molecule `CCn1nc(C)c2c(C(=O)NC3CC4CCC(C3)N4C)cc(-c3ccc(C)cc3)nc21` (stereo unspecified), the “% Inhibition” value is given as -9% and the Z score came out at 1.39.

In the case of `Cc1nccn1-c1ccnc(C(=O)NC[C@H]2CCNCC2(F)F)c1`, the “% Inhibition” value is listed as -1% and the Z score is listed as 0.1.

As to `Cc1cscc1C(=O)N1CCO[C@@H](CC(=O)O)C1`, the “% Inhibition” value is reported as -1% and the Z score was 0.16.

For the molecule `Cc1ccc(C#N)c(N2C[C@@H]3COc4ccccc4C[C@]3(CO)C2)n1`, the “% Inhibition” value is -5% and the Z score came to 0.47.

With `Cc1cccc(CNC(=O)c2nn(-c3ccccn3)c3nccc(-c4cccs4)c23)c1`, the “% Inhibition” value was 3% and the Z score is -0.36.

`O=C1[C@@H]2CC[C@@H](CN(c3ncnc4[nH]cnc34)C2)N1Cc1cscn1`: the “% Inhibition” value is recorded as -1% and the Z score was 0.26.

As for `Cc1cc(NC(=O)C(=O)NCCc2cccc(O)c2)n(-c2ncccn2)n1`, the “% Inhibition” value was 1% and the Z score is given as -0.12.

For `CC(CO)(CO)NC(=O)Cc1cc(F)ccc1Br`, the “% Inhibition” value is -7% and the Z score was 0.75.

On to `CCOC(=O)NCC#CCOc1cccc(C(F)(F)F)c1`, for which the “% Inhibition” value is recorded as -20% and the Z score is 2.51.

Consider `COc1ccccc1C(=O)Nc1ccc(N2CCCN(Cc3ccccc3C#N)C2=O)cc1`, for which the “% Inhibition” value is -12% and the Z score worked out at 1.6.

As for `CO[C@H]1[C@@H]2CC[C@H]1CN(C(=O)NCCc1cnn(-c3ccccc3)c1)C2`, the “% Inhibition” value was -3% and the Z score stood at 0.5.

Take `O=C(CCc1nc2ccccc2s1)c1ccc(F)cc1`: the “% Inhibition” value is given as -13% and the Z score is 1.49.

For the molecule `CO[C@@H]1CC[C@@]2(OC)CCN(S(=O)(=O)c3cc(F)ccc3C)[C@H]2C1`, the “% Inhibition” value is listed as -1% and the Z score was 0.15.

With `Cc1ccsc1C(=O)NCC1(C)CCOCC1`, the “% Inhibition” value is -6% and the Z score was 1.08.

In the case of `Nc1ccc(C2(c3ccc(N)cc3)c3ccccc3C(=O)c3ccccc32)cc1`, the “% Inhibition” value stood at 18% and the Z score is listed as -2.61.

Consider `CN(Cc1cn(C)nn1)C(=O)NCc1nc2ccccc2n1C1CC1`, for which the “% Inhibition” value is given as -11% and the Z score worked out at 1.42.

Take `CCCOC[C@H]1CCN(c2ncncc2C(=O)O)C1`: the “% Inhibition” value is given as -3% and the Z score is recorded as 0.28.

Consider `C[C@H]1CCCCN1c1ccc(C(N)=O)cc1NC(=O)c1ncccc1O`, for which the “% Inhibition” value is listed as -13% and the Z score worked out at 1.43.

For the molecule `COc1ccccc1-c1nc(NCCN2CCCCC2)nc2nn(-c3ccccc3)c(N)c12`, the “% Inhibition” value is -5% and the Z score is on record as 0.57.

In the case of `CC1(C2CC2)CCN(C(=O)c2csnn2)CC1`, the “% Inhibition” value is 2% and the Z score was -0.37.

`C[C@@H](C(=O)NC1(C(=O)O)CCCC1)N(C)C1CCCCC1`: the “% Inhibition” value is given as 1% and the Z score is recorded as -0.11.

With `COC(=O)CCN(C)S(=O)(=O)N1CCC(C)CC1C(C)O` (stereo unspecified), the “% Inhibition” value is reported as -5% and the Z score is reported as 0.56.

On to `C[C@@H](CNC(=O)C1(N2CCOCC2)CCCCC1)Oc1cccnc1`, for which the “% Inhibition” value was determined as 3% and the Z score is recorded as -0.52.

Take `CC(C)C[C@H]1C(=O)N2C[C@@H](N(C)C)C[C@H]2CN1C(=O)c1nccc2ccccc12`: the “% Inhibition” value was -11% and the Z score is on record as 1.32.

For `O=C(c1cn2ccccc2n1)N1CCN(S(=O)(=O)c2ccc(Cl)cc2)CC1`, the “% Inhibition” value is -12% and the Z score was determined as 2.48.

`Cc1nonc1COC(=O)c1nc(C)n2ccccc12`: the “% Inhibition” value is reported as -6% and the Z score is given as 0.9.

Take `CCOC(=O)C(NC(=O)c1cccc[n+]1[O-])C(=O)OCC`: the “% Inhibition” value is recorded as -11% and the Z score is 1.74.

On to `Cc1cccc(Cn2c(=O)c(C(=O)N3CCOCC3)nn(-c3cccc(F)c3)c2=O)c1`, for which the “% Inhibition” value is given as -6% and the Z score is 0.84.

Consider `CCn1cnc(NC(=O)N2CCC[C@H](C(C)(C)O)C2)n1`, for which the “% Inhibition” value was -18% and the Z score was determined as 1.74.
